Source: paper PMC4336329 (PLoS ONE, 2015)
Out of some 310,000 compounds screened, about 2,200 (0.71%) showed an effect of 50% or more. The effect is printed as a negative number. Some of the results follow.

Target: human ether-à-go-go-related gene (hERG) potassium channel (human, UniProt Q12809)
Assay: primary screen, population patch clamp on CHO cells stably expressing hERG

Sequence of human ether-à-go-go-related gene (hERG) potassium channel (Q12809 whole entry, looked up): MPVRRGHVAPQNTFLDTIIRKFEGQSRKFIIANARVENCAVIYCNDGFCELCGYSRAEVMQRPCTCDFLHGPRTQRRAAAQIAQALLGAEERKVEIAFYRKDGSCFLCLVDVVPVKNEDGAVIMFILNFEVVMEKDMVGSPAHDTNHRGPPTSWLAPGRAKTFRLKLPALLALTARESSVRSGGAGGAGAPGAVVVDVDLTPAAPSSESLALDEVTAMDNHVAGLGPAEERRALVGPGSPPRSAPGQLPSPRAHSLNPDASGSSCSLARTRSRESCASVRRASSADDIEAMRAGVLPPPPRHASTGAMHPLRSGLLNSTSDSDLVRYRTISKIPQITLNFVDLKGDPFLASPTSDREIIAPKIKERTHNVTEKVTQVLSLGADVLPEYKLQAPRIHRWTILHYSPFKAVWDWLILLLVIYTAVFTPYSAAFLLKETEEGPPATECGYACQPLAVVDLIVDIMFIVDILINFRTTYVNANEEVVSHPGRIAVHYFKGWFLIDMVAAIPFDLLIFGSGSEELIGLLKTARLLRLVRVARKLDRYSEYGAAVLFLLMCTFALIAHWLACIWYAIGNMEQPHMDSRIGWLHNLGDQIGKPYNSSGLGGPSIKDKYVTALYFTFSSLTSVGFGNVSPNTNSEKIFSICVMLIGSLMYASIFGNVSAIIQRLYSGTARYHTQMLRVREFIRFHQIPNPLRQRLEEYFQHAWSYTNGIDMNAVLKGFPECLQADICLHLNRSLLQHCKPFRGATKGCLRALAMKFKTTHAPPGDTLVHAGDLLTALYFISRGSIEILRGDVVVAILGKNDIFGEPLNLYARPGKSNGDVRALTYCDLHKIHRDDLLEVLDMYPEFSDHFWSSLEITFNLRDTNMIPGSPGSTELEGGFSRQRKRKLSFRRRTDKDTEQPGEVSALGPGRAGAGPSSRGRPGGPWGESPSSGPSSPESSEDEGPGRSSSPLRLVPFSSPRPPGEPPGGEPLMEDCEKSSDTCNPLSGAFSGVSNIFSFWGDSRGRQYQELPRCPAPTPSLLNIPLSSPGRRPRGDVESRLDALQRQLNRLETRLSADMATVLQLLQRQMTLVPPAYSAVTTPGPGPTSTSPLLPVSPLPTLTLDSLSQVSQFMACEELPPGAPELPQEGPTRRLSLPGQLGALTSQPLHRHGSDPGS

SMILES | hERG current change (%, negative = inhibition) at 1uM [%]
Cc1ccccc1N(C(=O)Cn1nnc(-c2cccs2)n1)C(C(=O)NCCC(C)C)c1ccco1 (centres unmarked) | -12.8
COc1ccc(CN2CCC(CO)(Cc3cccc(C(F)(F)F)c3)CC2)cc1Cn1cccn1 | -35.3
Cc1ccc2cc(CN(Cc3ccco3)C(=S)NCC3CCCO3)c(=O)[nH]c2c1C (centres unmarked) | -7.41
O=C(NCCF)[C@H]1C[C@@H]1[C@H](NP(=O)(c1ccccc1)c1ccccc1)c1ccccc1 | 9.1
CN(Cc1ccccc1)C(=O)CC(c1ccccc1)c1cc(Cl)ccc1O (centres unmarked) | -2.12
COC(=O)c1cc(C(=O)OCC(=O)Nc2cc(C)on2)cc([N+](=O)[O-])c1 | 16.2
CSCC(C)N1CCC(Oc2cccc(C(=O)NCc3ccccn3)c2)CC1 (centres unmarked) | 10
Cc1ccc(-c2c(C)n([O-])c3c([n+]2=O)CCCCC3)o1 | 15.9
COc1ccc(C(CNC(=O)c2cc3ccccc3cc2OC)N2CCCC2)cc1 (centres unmarked) | -31.7
Cc1ccccc1-c1ccc(=O)n(CC(=O)Nc2ccc(N3CCOCC3)cc2)n1 | 11.3
O=C(CSc1nc2ccc(Cl)cc2[nH]1)c1c[nH]c2ccccc12 | 9.13
OCCNc1nc(Nc2ccc(Cl)cc2)nc(N2CCCC2)n1 | -1.16
COc1cccc(OC)c1C(=O)Nc1c(C)n(C)n(-c2ccccc2)c1=O | 4.69
O=C1OCC(CO)(CO)N=C1NNc1cc(Cl)ccc1Cl | 10.3
CC(=O)c1ccc(NCCC(=O)c2ccccc2)cc1 | -3.1
CCN(CCNC(=O)C1CC(=O)N(CCc2ccccc2)C1)c1ccccc1 (centres unmarked) | 12.2
O=C(O)C1(P(=O)(c2ccc(Cl)cc2)c2ccc(Cl)cc2)CC1 | 14.9
Cc1occc1C(=O)N/N=C/c1ccccc1[N+](=O)[O-] | 6.4
C=CCOC(=O)C(C#N)c1nc2ccccc2nc1N1CCN(c2ccccc2OCC)CC1 (centres unmarked) | 9.93
O=[N+]([O-])c1ccccc1/C=N/NC1=NS(=O)(=O)c2ccccc21 | -7.86
O=C(Nc1ccccc1)C1CCN(c2nccs2)CC1 | 3.99
CCc1ccc(C2C(C#N)=C(N)N(N(C)C)C3=C2C(=O)CCC3)cc1 (centres unmarked) | 4.73

SMILES | hERG current change (%, negative = inhibition) at 1uM [%]
CCOC(=O)NC1(Nc2ccc(C)cc2)Oc2ccccc2O1 | 10.5
Cc1cccc(OCCOC(=O)Nc2ccccc2)c1 | 20.7
COc1ccccc1NC(=O)CCC(=O)OCc1ccc(Br)cc1 | -4.11
COc1ccc(N(CC(=O)NCCSc2ccccn2)S(=O)(=O)c2ccccc2)c(OC)c1 | 14.3
O=[N+]([O-])c1cc2cccnc2c2ncccc12 | 18.6
NC(=O)OCC(COC(N)=O)c1ccccc1 | 19.1
O=C(O)c1ccc(S(=O)(=O)c2ccc3c(c2)C(=O)N(Cc2ccco2)C3=O)cc1 | -2.4
Cc1c(Cl)cccc1Nc1ncccc1C(=O)OCC(O)CO (centres unmarked) | 10.8
NC1=NN=C(N2N=C(c3ccco3)CC2(O)C(F)(F)F)n2ncnc2C1 (centres unmarked) | 11.4
CCOc1ccc(N2CC(C(=O)Nc3ccc4c(c3)OCO4)CC2=O)cc1 (centres unmarked) | 7.31
CCOC(=O)C1CCCN(C(=O)c2cc(-c3ccccc3)nc3ccccc23)C1 (centres unmarked) | 6.61
Cc1cccn2c(=O)c3cc(C(N)=S)c(=N)n(CCCOC(C)C)c3nc12 | -77.8
CCOC(=O)CSCc1cn2cc(Cl)ccc2n1 | 0.388
CCCNC(=S)NC1CC2CCC(C1)N2Cc1ccccc1 (centres unmarked) | 4.46
COc1cccc(-c2noc(C3CCCN(C(=O)Cc4ccccc4)C3)n2)c1 (centres unmarked) | -3.22
CSc1nc2sc3c(c2c(=O)n1C1CCCCC1)CCN(C)C3 | -1.02
Cc1ccc(NC(=S)NNC(=O)Cn2nc(C(F)F)cc2C(F)F)cc1 | 13.6
CN(C)S(=O)(=O)c1ccc(Cl)c(C(=O)NC2CCN(Cc3ccccc3)C2)c1 (centres unmarked) | 14.8
CCOC(=O)c1cnn2c(N)c(C#N)nnc12 | 0.333
CCOc1ccc(N2CC(C(=O)NCCc3ccc(F)cc3)CC2=O)cc1 (centres unmarked) | -22.2
CCOC(=O)c1c(N)sc(C(O)(C(F)(F)F)C(F)(F)F)c1-c1ccc(OC)cc1OC | 12.3
CCn1c(SCC(=O)N2CCCc3ccccc32)nnc1-c1c[nH]c2ccccc12 | 2.46
